Measurements from the supplement of paper PMC8728848.
This is one part of the list.

Key:
Assay in all cases: glycan array binding signal (z-score within array); higher = stronger binding
Conditions in all cases: glycan notation: IUPAC condensed, linker removed; mutation: Y228A
[1] = biological target: GlcNAc(b1-3)Gal(b1-4)GlcNAc(b1-3)Gal(b1-4)GlcNAc(b1-3)Gal(b1-4)GlcNAc(b1-3)Gal(b1-4)GlcNAc(b1-2)[GlcNAc(b1-3)Gal(b1-4)GlcNAc(b1-3)Gal(b1-4)GlcNAc(b1-3)Gal(b1-4)GlcNAc(b1-3)Gal(b1-4)GlcNAc(b1-6)]Man(a1-6)[GlcNAc(b1-3)Gal(b1-4)GlcNAc(b1-3)Gal(b1-4)GlcNAc(b1-3)Gal(b1-4)GlcNAc(b1-3)Gal(b1-4)GlcNAc(b1-2)Man(a1-3)]Man(b1-4)GlcNAc(b1-4)[Fuc(a1-6)]GlcNAc
In short: (§1)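 Glycan array binding is given as a within-array Z-score, which can be read as non-binding when negative. The arrays, 3228 of them, came from the Consortium for Functional Glycomics database and were retained only where the protein sequence was available. Z-scores were averaged across arrays of the same protein sequence at different concentrations or buffers and across linkers.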

[2] = biological target: GlcNAc(b1-3)Gal(b1-4)GlcNAc(b1-3)Gal(b1-4)GlcNAc(b1-3)GalNAc
In short: as §1

[3] = biological target: GlcNAc(b1-3)Gal(b1-4)GlcNAc(b1-3)GalNAc
In short: as §1

[4] = biological target: GlcNAc(b1-3)Gal(b1-4)GlcNAc(b1-3)[GlcNAc(b1-3)Gal(b1-4)GlcNAc(b1-3)]GalNAc
In short: as §1

[5] = biological target: GlcNAc(b1-3)Gal(b1-4)GlcNAc(b1-6)[Gal(b1-3)]GalNAc
In short: as §1

[6] = biological target: GlcNAc(b1-3)Gal(b1-4)GlcNAc(b1-6)[GlcNAc(b1-3)Gal(b1-3)]GalNAc
In short: as §1

[7] = biological target: GlcNAc(b1-3)Gal(b1-4)GlcNAc(b1-6)[GlcNAc(b1-3)]Gal(b1-4)GlcNAc
In short: as §1

[8] = biological target: GlcNAc(b1-3)GalNAc
In short: as §1

[9] = biological target: GlcNAc(b1-3)Man
In short: as §1

[10] = biological target: GlcNAc(b1-3)[GlcNAc(b1-4)][GlcNAc(b1-6)]GlcNAc
In short: as §1

[11] = biological target: GlcNAc(b1-3)[GlcNAc(b1-6)]Gal(b1-4)GlcNAc
In short: as §1

[12] = biological target: GlcNAc(b1-3)[GlcNAc(b1-6)]GalNAc
In short: as §1

[13] = biological target: GlcNAc(b1-4)Gal(b1-4)GlcNAc
In short: as §1

[14] = biological target: GlcNAc(b1-4)GlcNAc
In short: as §1

[15] = biological target: GlcNAc(b1-4)GlcNAc(b1-4)GlcNAc
In short: as §1

[16] = biological target: GlcNAc(b1-4)GlcNAc(b1-4)GlcNAc(b1-4)GlcNAc(b1-4)GlcNAc
In short: as §1

[17] = biological target: GlcNAc(b1-4)GlcNAc(b1-4)GlcNAc(b1-4)GlcNAc(b1-4)GlcNAc(b1-4)GlcNAc
In short: as §1

[18] = biological target: GlcNAc(b1-4)[GlcNAc(b1-6)]GalNAc
In short: as §1

[19] = biological target: GlcNAc(b1-6)Gal(b1-4)GlcNAc
In short: as §1

[20] = biological target: GlcNAc(b1-6)GalNAc
In short: as §1

[21] = biological target: GlcNAc6S(b1-3)Gal(b1-4)GlcNAc
In short: as §1

[22] = biological target: Kdn(a2-3)Gal(b1-3)GalNAc
In short: as §1

[23] = biological target: Kdn(a2-3)Gal(b1-3)GlcNAc
In short: as §1

[24] = biological target: Kdn(a2-3)Gal(b1-4)Glc
In short: as §1

[25] = biological target: Kdn(a2-3)Gal(b1-4)GlcNAc
In short: as §1

[26] = biological target: Kdn(a2-3)Gal(b1-4)[Fuc(a1-3)]GlcNAc
In short: as §1

[27] = biological target: Kdn(a2-6)Gal(b1-4)GlcNAc
In short: as §1

[28] = biological target: Man(a1-2)Man(a1-2)Man(a1-3)Man
In short: as §1

[29] = biological target: Man(a1-2)Man(a1-2)Man(a1-6)[Man(a1-3)]Man
In short: as §1

[30] = biological target: Man(a1-2)Man(a1-3)Man
In short: as §1

B1: Epa1-NP-mutant-Y228A (Candida glabrata), Q6VBJ0 (protein)
chain: MILNPALFLNKCVCIYTTLILLLLTNGGYATSSNDISLASKDPTTFPLGCSPDITTPKKGLSMELYSYDFRKKGSYPCWDAAYLDPNYPRTGYKSHRLLAKVDGVTGNINFYYHATKGCTPQLGHLPASYNYPKPLTMTNFTMLLYGYFRPKVTGFHTFTISADDLLFVNFGAGNAFDCCRRDSSADHFGNYQAYAIWGSKTAKDELTVHLDAGVYYPIRLFYNNREADGALSFTFKTESNENTVSDFSEYFFSLDDTEEGCPGLISYDSSCASVKTSKIIGIDYHTETPNENLVPITKTIYHLGIPCTGTTTTPLCGSGFYDPLANKCVTINTSSTSSVTKTTSHTTSKEVSFHSSISSQKTLIPKSIPSPYGPIKSQSIPTEMETSSEISSSEYAFSDVISTPSHSPYTKKHSSLNSSSYTSTVIHSLTSYSISQGIFSTSLSEQNITSKSSTDKFSTATSMSNNITQSSIIISQFSTNNENYTTTSMHTSSDKISTETLNNSISTTTSILFSNSSTILKNNTTIISSDKDTHYHPVNPTIVCSTNKTEIICASITQPSISNSNNHWSSSVLKFNSTTVRSTLPSSAGSNETSINVPFSSSTESNTSTSSTSTSNSKMVRSTLPSSAGSNETSISVPFSSSTESNTSTSSTSTSNSKMVRSTLPSSAGSNETSINVPFSSSTESNTSTSSTSTSNSKTVRSTPFSSAGIIMTSLSQRNNKSASSYASSNSKCYNTADSCRKVHSTPSYLLTSSYTSEGVDYDCSLVSTKLKINDTNCVNNKHTTKSCLKTSVTTTIPTLEIKTARKSSSNTIGLHSYPTSSPNKSISSAPIIGYISSFKTIKTASPSYQTSDLTTITTITSLNNPGSTAVENTHESNDKSRKTSSNDISSKHSVIKETKDAVESSNKSHQTNTLKCSSIIIASSSHNSYESLGGTTLTLTLSKVYSPQNNDTLPFLEISEVNPSRTVLPESSKMMQYLTSTEERNKTARNTIATNIVSISTFHFEGEGNAIRMGYTQLLLMLIGIIVMNIGT
glycan array binding signal (z-score) [1]: 0.081
glycan array binding signal (z-score) [2]: -0.188
glycan array binding signal (z-score) [3]: -0.244
glycan array binding signal (z-score) [4]: -0.203
glycan array binding signal (z-score) [5]: -0.012
glycan array binding signal (z-score) [6]: -0.089
glycan array binding signal (z-score) [7]: -0.315
glycan array binding signal (z-score) [8]: -0.218
glycan array binding signal (z-score) [9]: -0.295
glycan array binding signal (z-score) [10]: -0.146
glycan array binding signal (z-score) [11]: -0.235
glycan array binding signal (z-score) [12]: -0.277
glycan array binding signal (z-score) [13]: -0.064
glycan array binding signal (z-score) [14]: -0.279
glycan array binding signal (z-score) [15]: -0.167
glycan array binding signal (z-score) [16]: -0.213
glycan array binding signal (z-score) [17]: -0.261
glycan array binding signal (z-score) [18]: -0.288
glycan array binding signal (z-score) [19]: 0.495
glycan array binding signal (z-score) [20]: -0.255
glycan array binding signal (z-score) [21]: 1
glycan array binding signal (z-score) [22]: -0.251
glycan array binding signal (z-score) [23]: -0.162
glycan array binding signal (z-score) [24]: -0.129
glycan array binding signal (z-score) [25]: -0.29
glycan array binding signal (z-score) [26]: -0.122
glycan array binding signal (z-score) [27]: -0.22
glycan array binding signal (z-score) [28]: -0.277
glycan array binding signal (z-score) [29]: -0.127
glycan array binding signal (z-score) [30]: -0.176
